Assay results as given in FireProtDB (doi:10.1093/protein/6.2.183).

Conditions: Gallus gallus; pH 5.5; 35 °C; GdnHCl; CD; acetate 0.1 M; reversible: yes

## Lysozyme C wild type (letters omitted)
  denaturant m value: 2.9 kcal/mol/M
  denaturant midpoint (higher = more stable): 3.62 M
  unfolding free energy: 42.3 kJ/mol
